# The list shows a part of the results.
# Test system: HSkMC (human skeletal muscle cells)
# Test: cytotoxicity call (relative viability < 0.9)
# Conditions: 10 µM
row,SMILES,cytotoxicity call
1,CC[C@H]1OC[C@@H]2CN(C(=O)CN(C)C)CC[C@H]21,inactive
2,C[C@H](CO)N1C[C@H](C)[C@@H](CN(C)Cc2ccc(-c3ccccc3)cc2)Oc2c(NC(=O)C3CCCCC3)cccc2C1=O,inactive
3,C[C@@H]1CN([C@@H](C)CO)C(=O)c2c(c3ccccc3n2C)-c2ccccc2CO[C@@H]1CN(C)C(=O)c1ccc(F)cc1,inactive
4,C[C@H]1CN([C@@H](C)CO)S(=O)(=O)c2ccc(Br)cc2O[C@H]1CN(C)Cc1ccc(F)cc1,inactive
5,O=C(NO)c1ccc(-c2cn(CC(=O)N3CCOCC3)nn2)cc1,inactive
6,C[C@@H]1CCCCO[C@@H](CN(C)S(=O)(=O)c2ccc(Cl)cc2)[C@@H](C)CN([C@H](C)CO)C(=O)c2cc(NC(=O)C3CCCCC3)ccc2O1,inactive
7,C[C@H]1CN([C@@H](C)CO)C(=O)Cc2cc(NC(=O)Nc3ccc4c(c3)OCO4)ccc2O[C@@H]1CN(C)S(=O)(=O)c1cn(C)cn1,inactive
8,C[C@@H]1CCCCO[C@H](CN(C)C(=O)Nc2ccc3c(c2)OCO3)[C@@H](C)CN([C@H](C)CO)C(=O)c2cc(NC(=O)Nc3ccc(F)cc3)ccc2O1,inactive
9,C[C@H]1CN([C@@H](C)CO)C(=O)c2cc(NC(=O)c3ccncc3)ccc2O[C@H]1CN(C)S(=O)(=O)c1cccs1,inactive
10,O=C(C[C@@H]1CC[C@@H]2[C@H](COC[C@H](O)CN2S(=O)(=O)c2ccc(F)cc2)O1)NCc1ccncn1,inactive
11,Cc1cc(C(=O)Nc2cccc3c2O[C@H](CN(C)S(=O)(=O)c2ccccc2)[C@@H](C)CN([C@@H](C)CO)C3=O)n(C)n1,inactive
12,COc1ccc(S(=O)(=O)N(C)C[C@@H]2Oc3c(NS(=O)(=O)c4ccccc4)cccc3C(=O)N([C@H](C)CO)C[C@@H]2C)cc1,inactive
13,O=C(/C=C/c1ccc(O)cc1)[C@H]1C(=O)[C@H]([C@@H]2O[C@H](CO)[C@@H](O)[C@H](O)[C@H]2O)C(=O)[C@@](O)([C@@H]2O[C@H](CO)[C@@H](O)[C@H](O)[C@H]2O)C1=O,inactive
14,COc1ccc(CN(C)C[C@H]2Oc3c(NS(C)(=O)=O)cccc3C(=O)N([C@H](C)CO)C[C@@H]2C)cc1,inactive
15,CC(C)(C)OC(=O)N1CC(C(=O)O)C1,inactive
16,C[C@H]1CN([C@@H](C)CO)C(=O)c2cc(NC(=O)Cc3ccccc3)ccc2O[C@H]1CN(C)Cc1ccc(Cl)c(Cl)c1,inactive
17,C[C@@H]1CN([C@@H](C)CO)C(=O)c2cc(NC(=O)c3ccncc3)ccc2O[C@@H]1CN(C)Cc1ccc(Oc2ccccc2)cc1,inactive
18,C[C@@H]1CN([C@@H](C)CO)C(=O)c2cc(NC(=O)Nc3ccc(F)cc3)ccc2O[C@@H](C)CCCCO[C@@H]1CN(C)Cc1ccc(C(=O)O)cc1,inactive
19,C[C@@H]1CCCCO[C@H](CN(C)CC2CCCCC2)[C@H](C)CN([C@H](C)CO)C(=O)c2cc(NC(=O)C3CCCCC3)ccc2O1,inactive
20,Cc1noc(C)c1NC(=O)N(C)C[C@H]1Oc2ccc(NC(=O)CCN3CCOCC3)cc2C(=O)N([C@@H](C)CO)C[C@@H]1C,inactive

row,SMILES,cytotoxicity call
1,C[C@@H]1CN([C@@H](C)CO)C(=O)Cc2cc(NC(=O)Nc3cccc4ccccc34)ccc2O[C@H]1CN(C)Cc1ccc(C(=O)O)cc1,inactive
2,C[C@@H]1CN([C@H](C)CO)C(=O)c2cccc(NC(=O)C3CC3)c2O[C@H]1CN(C)Cc1ccc(-c2ccccc2)cc1,inactive
3,CC(C)CC#Cc1ccc2c(c1)O[C@H](CN(C)C(=O)c1cnccn1)[C@H](C)CN([C@H](C)CO)S2(=O)=O,inactive
4,C[C@H](CO)N1C[C@H](C)[C@H](CN(C)C(=O)c2cnccn2)Oc2cc(C#CCC3CCCC3)ccc2S1(=O)=O,inactive
5,C[C@@H]1CN([C@H](C)CO)C(=O)c2cccc(NS(C)(=O)=O)c2O[C@H]1CN(C)C(=O)Nc1ccc(C(F)(F)F)cc1,inactive
6,Cc1nn(C)cc1NC(=O)C[C@@H]1CC[C@H]2[C@@H](COc3ccc(NC(=O)C4CCOCC4)cc3C(=O)N2C)O1,inactive
7,CN(C)c1cc[n+](C(=O)N2CCOCC2)cc1,inactive
8,C[C@@H]1CN([C@@H](C)CO)C(=O)c2cccc(NC(=O)Nc3ccc(F)cc3)c2O[C@@H]1CN(C)S(C)(=O)=O,inactive
9,C[C@@H]1CN([C@@H](C)CO)C(=O)c2cc(NC(=O)c3ccncc3)ccc2O[C@@H](C)CCCCO[C@H]1CN(C)C(=O)C1CCCCC1,inactive
10,C[C@H]1CN([C@@H](C)CO)C(=O)c2cccc(NC(=O)c3nc4ccccc4s3)c2O[C@@H]1CN(C)Cc1ccc(-c2ccccc2)cc1,inactive
11,COc1ccc(S(=O)(=O)Nc2ccc3c(c2)C(=O)N([C@H](C)CO)C[C@H](C)[C@@H](CN(C)Cc2ccncc2)O3)cc1,inactive
12,C[C@@H]1CN([C@@H](C)CO)C(=O)Cc2cc(NC(=O)CCN3CCOCC3)ccc2O[C@@H]1CN(C)S(=O)(=O)c1ccc(Cl)cc1,inactive
13,Cc1cncc2cccc(S(=O)(=O)NCCN(C/C=C/c3ccc(Br)cc3)C/C=C/c3ccc(Br)cc3)c12,inactive
14,C[C@@H]1CN([C@H](C)CO)C(=O)c2cc(NC(=O)C3CCCCC3)ccc2O[C@@H](C)CCCCO[C@H]1CN(C)C(=O)Cc1ccccc1,inactive
15,Oc1ccccc1CNc1ccc(C2CCCCC2)cc1,inactive
16,O=C(C[C@@H]1CC[C@H]2[C@@H](COC[C@H](O)CN2C(=O)Nc2ccc(Cl)cc2)O1)NC1Cc2ccccc2C1,inactive
17,Cc1noc(C)c1S(=O)(=O)N(C)C[C@H]1OCCCC[C@H](C)Oc2ccc(N(C)C)cc2C(=O)N([C@@H](C)CO)C[C@@H]1C,inactive
18,COc1cccc(C#Cc2ccc3c(c2)O[C@H](CN(C)S(=O)(=O)c2ccccc2F)[C@@H](C)CN([C@H](C)CO)S3(=O)=O)c1,inactive
19,COc1ccc(S(=O)(=O)N(C)C[C@H]2Oc3cc(C4=CCCC4)ccc3S(=O)(=O)N([C@@H](C)CO)C[C@H]2C)cc1,inactive
20,COc1cccc(S(=O)(=O)N(C)C[C@@H]2Oc3cc(C#CCC(C)C)ccc3S(=O)(=O)N([C@H](C)CO)C[C@H]2C)c1,inactive

# Source: the antibiotic and cytotoxicity screens of Wong et al. (2023)
